± gives the standard deviation of the averaged measurements. Laboratory Escherichia coli strains with one amino-acid change in an essential protein, pooled on minimal glucose agar with carbenicillin or gentamicin at twice the control MIC (plus kanamycin and chloramphenicol for the plasmids), 48 h. Fold change of barcode share against drug-free plates; higher = less susceptible. Active = above 20 in both replicates (the paper's putatively resistant). '<' = one read or none on drug, '>' = one read or none on a drug-free plate. Shares are relative, so most strains fall below 1 when a few take over. Listed are strains with at least 15 reads on both drug-free plates, and hits; most hits rest on fewer reference reads. Replicate rank correlation about 0.5. Edits are read from barcodes.
Molecular target: Escherichia coli (laboratory strain)
Experiment: barcode share on antibiotic plates over drug-free plates; higher = less susceptible
Protocol: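 A pool of E. coli strains, each edited to carry one amino-acid change in an essential protein, was grown for 48 h on minimal glucose agar with or without antibiotic; strain barcodes were sequenced; mean of two replicates.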

[1] = antibiotic: carbenicillin, 2× MIC (3.1 µg/mL)
[2] = antibiotic: gentamicin, 2× MIC (MIC 0.45 µg/mL)

Row | Protein | fold change of barcode share [1] | fold change of barcode share [2]
1 | asnS I75Q (protein) MSVVPVADVLQGRVAVDSEVTVRGWVRTRRDSKAGISFLAVYDGSCFDPVQAVINNSLPNYNEDVLRLTTGCSVQVTGKVVASPGQGQQFEIQASKVEVAGWVEDPDTYPMAAKRHSIEYLREVAHLRPRTNLIGAVARVRHTLAQALHRFFNEQGFFWVSTPLITASDTEGAGEMFRVSTLDLENLPRNDQGKVDFDKDFFGKESFLTVSGQLNGETYACALSKIYTFGPTFRAENSNTSRHLAEFWMLEPEVAFANLNDIAGLAEAMLKYVFKAVLEERADDMKFFAERVDKDAVSRLERFIEADFAQVDYTDAVTILENCGRKFENPVYWGVDLSSEHERYLAEEHFKAPVVVKNYPKDIKAFYMRLNEDGKTVAAMDVLAPGIGEIIGGSQREERLDVLDERMLEMGLNKEDYWWYRDLRRYGTVPHSGFGLGFERLIAYVTGVQNVRDVIPFPRTPRNASF | 0.389 ± 0.25 | 0.00992 ± 0.0014
2 | asnS M249Q (protein) MSVVPVADVLQGRVAVDSEVTVRGWVRTRRDSKAGISFLAVYDGSCFDPVQAVINNSLPNYNEDVLRLTTGCSVIVTGKVVASPGQGQQFEIQASKVEVAGWVEDPDTYPMAAKRHSIEYLREVAHLRPRTNLIGAVARVRHTLAQALHRFFNEQGFFWVSTPLITASDTEGAGEMFRVSTLDLENLPRNDQGKVDFDKDFFGKESFLTVSGQLNGETYACALSKIYTFGPTFRAENSNTSRHLAEFWQLEPEVAFANLNDIAGLAEAMLKYVFKAVLEERADDMKFFAERVDKDAVSRLERFIEADFAQVDYTDAVTILENCGRKFENPVYWGVDLSSEHERYLAEEHFKAPVVVKNYPKDIKAFYMRLNEDGKTVAAMDVLAPGIGEIIGGSQREERLDVLDERMLEMGLNKEDYWWYRDLRRYGTVPHSGFGLGFERLIAYVTGVQNVRDVIPFPRTPRNASF | 0.4 ± 0.043 | < 0.00538
3 | asnS I75D (protein) MSVVPVADVLQGRVAVDSEVTVRGWVRTRRDSKAGISFLAVYDGSCFDPVQAVINNSLPNYNEDVLRLTTGCSVDVTGKVVASPGQGQQFEIQASKVEVAGWVEDPDTYPMAAKRHSIEYLREVAHLRPRTNLIGAVARVRHTLAQALHRFFNEQGFFWVSTPLITASDTEGAGEMFRVSTLDLENLPRNDQGKVDFDKDFFGKESFLTVSGQLNGETYACALSKIYTFGPTFRAENSNTSRHLAEFWMLEPEVAFANLNDIAGLAEAMLKYVFKAVLEERADDMKFFAERVDKDAVSRLERFIEADFAQVDYTDAVTILENCGRKFENPVYWGVDLSSEHERYLAEEHFKAPVVVKNYPKDIKAFYMRLNEDGKTVAAMDVLAPGIGEIIGGSQREERLDVLDERMLEMGLNKEDYWWYRDLRRYGTVPHSGFGLGFERLIAYVTGVQNVRDVIPFPRTPRNASF | 0.277 ± 0.17 | < 0.00391
4 | asnS L250W (protein) MSVVPVADVLQGRVAVDSEVTVRGWVRTRRDSKAGISFLAVYDGSCFDPVQAVINNSLPNYNEDVLRLTTGCSVIVTGKVVASPGQGQQFEIQASKVEVAGWVEDPDTYPMAAKRHSIEYLREVAHLRPRTNLIGAVARVRHTLAQALHRFFNEQGFFWVSTPLITASDTEGAGEMFRVSTLDLENLPRNDQGKVDFDKDFFGKESFLTVSGQLNGETYACALSKIYTFGPTFRAENSNTSRHLAEFWMWEPEVAFANLNDIAGLAEAMLKYVFKAVLEERADDMKFFAERVDKDAVSRLERFIEADFAQVDYTDAVTILENCGRKFENPVYWGVDLSSEHERYLAEEHFKAPVVVKNYPKDIKAFYMRLNEDGKTVAAMDVLAPGIGEIIGGSQREERLDVLDERMLEMGLNKEDYWWYRDLRRYGTVPHSGFGLGFERLIAYVTGVQNVRDVIPFPRTPRNASF | 0.287 ± 0.026 | 0.0127 ± 0.0074
5 | asnS L250A (protein) MSVVPVADVLQGRVAVDSEVTVRGWVRTRRDSKAGISFLAVYDGSCFDPVQAVINNSLPNYNEDVLRLTTGCSVIVTGKVVASPGQGQQFEIQASKVEVAGWVEDPDTYPMAAKRHSIEYLREVAHLRPRTNLIGAVARVRHTLAQALHRFFNEQGFFWVSTPLITASDTEGAGEMFRVSTLDLENLPRNDQGKVDFDKDFFGKESFLTVSGQLNGETYACALSKIYTFGPTFRAENSNTSRHLAEFWMAEPEVAFANLNDIAGLAEAMLKYVFKAVLEERADDMKFFAERVDKDAVSRLERFIEADFAQVDYTDAVTILENCGRKFENPVYWGVDLSSEHERYLAEEHFKAPVVVKNYPKDIKAFYMRLNEDGKTVAAMDVLAPGIGEIIGGSQREERLDVLDERMLEMGLNKEDYWWYRDLRRYGTVPHSGFGLGFERLIAYVTGVQNVRDVIPFPRTPRNASF | 0.454 ± 0.043 | 0.00977 ± 0.0017
6 | nadA V137A (protein) MSVMFDPDTAIYPFPPKPTPLSIDEKAYYREKIKRLLKERNAVMVAHYYTDPEIQQLAEETGGCISDSLEMARFGAKHPASTLLVAGVRFMGETAKILSPEKTILMPTLQAECSLDLGCPVEEFNAFCDAHPDRTVAVYANTSAAVKARADWVVTSSIAVELIDHLDSLGEKIIWAPDKHLGRYVQKQTGGDILCWQGACIVHDEFKTQALTRLQEEYPDAAILVHPESPQAIVDMADAVGSTSQLIAAAKTLPHQRLIVATDRGIFYKMQQAVPDKELLEAPTAGEGATCRSCAHCPWMAMNGLQAIAEALEQEGSNHEVHVDERLRERALVPLNRMLDFAATLRG | 0.678 ± 0.42 | 0.0689 ± 0.014
7 | nadA V138A (protein) MSVMFDPDTAIYPFPPKPTPLSIDEKAYYREKIKRLLKERNAVMVAHYYTDPEIQQLAEETGGCISDSLEMARFGAKHPASTLLVAGVRFMGETAKILSPEKTILMPTLQAECSLDLGCPVEEFNAFCDAHPDRTVVAYANTSAAVKARADWVVTSSIAVELIDHLDSLGEKIIWAPDKHLGRYVQKQTGGDILCWQGACIVHDEFKTQALTRLQEEYPDAAILVHPESPQAIVDMADAVGSTSQLIAAAKTLPHQRLIVATDRGIFYKMQQAVPDKELLEAPTAGEGATCRSCAHCPWMAMNGLQAIAEALEQEGSNHEVHVDERLRERALVPLNRMLDFAATLRG | 0.3 ± 0.094 | 0.288 ± 0.26
8 | nadA V234Q (protein) MSVMFDPDTAIYPFPPKPTPLSIDEKAYYREKIKRLLKERNAVMVAHYYTDPEIQQLAEETGGCISDSLEMARFGAKHPASTLLVAGVRFMGETAKILSPEKTILMPTLQAECSLDLGCPVEEFNAFCDAHPDRTVVVYANTSAAVKARADWVVTSSIAVELIDHLDSLGEKIIWAPDKHLGRYVQKQTGGDILCWQGACIVHDEFKTQALTRLQEEYPDAAILVHPESPQAIQDMADAVGSTSQLIAAAKTLPHQRLIVATDRGIFYKMQQAVPDKELLEAPTAGEGATCRSCAHCPWMAMNGLQAIAEALEQEGSNHEVHVDERLRERALVPLNRMLDFAATLRG | 1.01 ± 0.72 | 0.0268 ± 0.021
9 | nadA V234A (protein) MSVMFDPDTAIYPFPPKPTPLSIDEKAYYREKIKRLLKERNAVMVAHYYTDPEIQQLAEETGGCISDSLEMARFGAKHPASTLLVAGVRFMGETAKILSPEKTILMPTLQAECSLDLGCPVEEFNAFCDAHPDRTVVVYANTSAAVKARADWVVTSSIAVELIDHLDSLGEKIIWAPDKHLGRYVQKQTGGDILCWQGACIVHDEFKTQALTRLQEEYPDAAILVHPESPQAIADMADAVGSTSQLIAAAKTLPHQRLIVATDRGIFYKMQQAVPDKELLEAPTAGEGATCRSCAHCPWMAMNGLQAIAEALEQEGSNHEVHVDERLRERALVPLNRMLDFAATLRG | 1.28 ± 0.94 | 0.052 ± 0.063
10 | nadA V225A (protein) MSVMFDPDTAIYPFPPKPTPLSIDEKAYYREKIKRLLKERNAVMVAHYYTDPEIQQLAEETGGCISDSLEMARFGAKHPASTLLVAGVRFMGETAKILSPEKTILMPTLQAECSLDLGCPVEEFNAFCDAHPDRTVVVYANTSAAVKARADWVVTSSIAVELIDHLDSLGEKIIWAPDKHLGRYVQKQTGGDILCWQGACIVHDEFKTQALTRLQEEYPDAAILAHPESPQAIVDMADAVGSTSQLIAAAKTLPHQRLIVATDRGIFYKMQQAVPDKELLEAPTAGEGATCRSCAHCPWMAMNGLQAIAEALEQEGSNHEVHVDERLRERALVPLNRMLDFAATLRG | 0.331 ± 0.091 | 0.0469 ± 0.05
11 | nadA L224A (protein) MSVMFDPDTAIYPFPPKPTPLSIDEKAYYREKIKRLLKERNAVMVAHYYTDPEIQQLAEETGGCISDSLEMARFGAKHPASTLLVAGVRFMGETAKILSPEKTILMPTLQAECSLDLGCPVEEFNAFCDAHPDRTVVVYANTSAAVKARADWVVTSSIAVELIDHLDSLGEKIIWAPDKHLGRYVQKQTGGDILCWQGACIVHDEFKTQALTRLQEEYPDAAIAVHPESPQAIVDMADAVGSTSQLIAAAKTLPHQRLIVATDRGIFYKMQQAVPDKELLEAPTAGEGATCRSCAHCPWMAMNGLQAIAEALEQEGSNHEVHVDERLRERALVPLNRMLDFAATLRG | 0.655 ± 0.29 | 0.0668 ± 0.037
12 | nadA V234D (protein) MSVMFDPDTAIYPFPPKPTPLSIDEKAYYREKIKRLLKERNAVMVAHYYTDPEIQQLAEETGGCISDSLEMARFGAKHPASTLLVAGVRFMGETAKILSPEKTILMPTLQAECSLDLGCPVEEFNAFCDAHPDRTVVVYANTSAAVKARADWVVTSSIAVELIDHLDSLGEKIIWAPDKHLGRYVQKQTGGDILCWQGACIVHDEFKTQALTRLQEEYPDAAILVHPESPQAIDDMADAVGSTSQLIAAAKTLPHQRLIVATDRGIFYKMQQAVPDKELLEAPTAGEGATCRSCAHCPWMAMNGLQAIAEALEQEGSNHEVHVDERLRERALVPLNRMLDFAATLRG | 1.38 ± 0.089 | 

From the supplement of paper PMC11876631
